Source: article PMC4336329 (PLoS ONE, 2015)
The whole screen tested about 310,000 compounds, of which about 2,200 (0.71%) showed an effect of 50% or more. Effects have a minus sign here. The list shows a part of the results.

These compounds were tested against human ether-à-go-go-related gene (hERG) potassium channel (human, UniProt Q12809) (assay: primary screen, population patch clamp on CHO cells stably expressing hERG).
human ether-à-go-go-related gene (hERG) potassium channel, sequence (Q12809 whole entry, looked up): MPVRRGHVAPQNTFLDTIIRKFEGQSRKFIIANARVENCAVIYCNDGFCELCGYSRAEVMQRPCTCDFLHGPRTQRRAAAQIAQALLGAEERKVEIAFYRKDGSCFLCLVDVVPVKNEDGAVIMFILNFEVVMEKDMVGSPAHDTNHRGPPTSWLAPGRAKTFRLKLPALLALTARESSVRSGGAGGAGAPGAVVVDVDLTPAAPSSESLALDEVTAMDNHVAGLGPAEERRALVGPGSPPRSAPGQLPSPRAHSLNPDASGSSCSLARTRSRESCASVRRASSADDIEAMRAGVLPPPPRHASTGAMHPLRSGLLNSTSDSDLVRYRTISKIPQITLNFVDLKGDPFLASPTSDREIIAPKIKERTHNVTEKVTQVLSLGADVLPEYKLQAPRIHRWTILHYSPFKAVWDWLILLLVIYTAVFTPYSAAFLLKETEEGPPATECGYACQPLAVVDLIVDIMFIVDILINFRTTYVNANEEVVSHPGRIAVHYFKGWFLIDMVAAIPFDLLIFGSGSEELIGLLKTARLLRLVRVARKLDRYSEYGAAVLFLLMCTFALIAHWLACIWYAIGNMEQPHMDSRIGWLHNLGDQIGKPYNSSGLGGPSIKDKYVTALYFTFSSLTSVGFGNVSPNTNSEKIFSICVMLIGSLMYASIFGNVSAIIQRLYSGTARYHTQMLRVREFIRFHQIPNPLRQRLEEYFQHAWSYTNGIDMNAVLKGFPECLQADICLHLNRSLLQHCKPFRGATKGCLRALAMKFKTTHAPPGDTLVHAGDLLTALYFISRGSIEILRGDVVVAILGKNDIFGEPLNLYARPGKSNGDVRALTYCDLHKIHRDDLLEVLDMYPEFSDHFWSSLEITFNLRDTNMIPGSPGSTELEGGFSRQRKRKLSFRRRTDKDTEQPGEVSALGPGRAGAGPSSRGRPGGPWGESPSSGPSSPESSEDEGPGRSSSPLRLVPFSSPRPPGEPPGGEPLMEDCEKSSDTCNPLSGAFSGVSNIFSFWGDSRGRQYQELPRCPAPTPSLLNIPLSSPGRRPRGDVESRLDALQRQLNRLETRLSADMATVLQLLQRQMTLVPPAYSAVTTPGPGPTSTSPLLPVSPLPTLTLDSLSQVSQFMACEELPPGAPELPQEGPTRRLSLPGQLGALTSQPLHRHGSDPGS

| Structure (SMILES) | hERG current change (%, negative = inhibition) at 1uM [%] |
| --- | --- |
| Cc1cc(NCCCn2ccnc2)n2nc(C)c(-c3ccc(Cl)cc3)c2n1 | -16.8 |
| CCN(CC)S(=O)(=O)c1cccc(C(=O)OCC(=O)c2ccc3c(c2)OCCO3)c1 | 8.89 |
| O=C(CSc1nnc(-c2ccccn2)o1)Nc1ccccc1 | 0.0597 |
| Cc1ccc2c(c1)C1CN(C)CCC1N2S(=O)(=O)c1cc(C(F)(F)F)ccc1Cl (centres unmarked) | 10.9 |
| Cc1nc(CSc2nnc(N)s2)cs1 | 11.8 |
| CC1CCCC(NC(=O)c2n[nH]c(=O)c3ccccc23)C1C (centres unmarked) | 7.26 |
| Cc1cc(C)cc(NC(=O)N2CCC(NC(=O)c3ccco3)CC2)c1 | 12.8 |
| CC1=CC2=NC(=O)/C(=C\c3cccn3CCOc3cc(C)cc(C)c3)C(=N)N2O1 | 4.96 |
| CCCc1nc2ccc(Br)cc2c(=O)n1-c1ccc([N+](=O)[O-])c(C(F)(F)F)c1 | 9.78 |
| NC(=O)c1cc([N+](=O)[O-])ccc1NCc1cnccn1 | 11.6 |
| Cc1cccc(Nc2nnc(SCC(=O)NCc3cccs3)s2)c1C | 11.4 |
| O=S(=O)(N/N=C/c1ccc(N2CCOCC2)cc1)c1ccccc1 | -2.78 |
| Cc1cccc(NC(=O)NC(C)CCc2ccccc2)c1 (centres unmarked) | 0.507 |
| O=C(NCCc1ccccc1)C1CCCN(C(=O)Nc2ccc(F)cc2)C1 (centres unmarked) | 4.75 |
| O=S(=O)(Nc1cccc(-c2ccc3nncn3n2)c1)c1ccccc1F | 6.36 |
| O=C(Nn1cc(C(=O)Nc2ccccc2F)c2ccccc2c1=O)c1cnccn1 | 4.74 |
| CC1=CC(C)(C)Nc2ccc(C)cc21 | -27.6 |
| CN=Cc1nc(-c2ccccc2)oc1O | 12.9 |
| CC1CCC(C(C)C)C(OC(=O)C2=C3c4ccccc4S(=O)(=O)N3CC2)C1 (centres unmarked) | 14 |
| CCN(CC(=O)NCc1ccncc1)S(=O)(=O)c1ccccc1 | 8.27 |
| CCOc1ccccc1CN1CCN(Cc2ccc3cc(F)ccc3n2)CC1CCO (centres unmarked) | -44.1 |
| Cc1c(CCOC(=O)c2ccccc2)sc[n+]1Cc1ccccc1.[Cl-] | -7.52 |

| Structure (SMILES) | hERG current change (%, negative = inhibition) at 1uM [%] |
| --- | --- |
| CC1(C)CC(=O)c2c(Cc3ccccc3)n[nH]c2C1 | 13.3 |
| COCCNC(=S)NCc1cccs1 | 19.2 |
| CC(NC(=O)c1cn(C(C)c2ccccc2F)nn1)c1ccncc1 (centres unmarked) | 4.51 |
| CCNC(=O)CSC1=N/C(=C\c2ccc(O)c(OCC)c2)C(=O)N1c1ccc(OC(F)F)cc1 | 12 |
| O=c1[nH]c(Cc2cccs2)nc2ccccc12 | 11.2 |
| CC1=NN(C(=O)CCCc2ccccc2)C(O)(C(F)(F)F)C1 (centres unmarked) | 10.3 |
| COCCn1c(SCC(=O)Nc2ccc(C(N)=O)cc2)nc2c([nH]c3ccccc32)c1=O | 13.5 |
| O=C1CC(N2CCN(c3ccccc3)CC2)C(=O)N1c1ccc(Cl)cc1 (centres unmarked) | 7.95 |
| O=S(=O)(Nc1c(O)ccc2ccccc12)c1ccccc1 | 7.42 |
| COc1ccc(OC)c(/C=N/NC(=O)CNC(=O)c2ccc(S(=O)(=O)N3CCOCC3)cc2)c1 | 5.07 |
| Cc1cc(C)cc(NC(=O)CC23CC4CC(C2)CC(n2nnc(C)n2)(C4)C3)c1 | -3.48 |
| Cl.N=c1sccn1CC(=O)Nc1cc(Cl)ccc1[N+](=O)[O-] | 14.5 |
| O=C(O)c1ccc(NC(=S)NC(=O)c2ccc(-c3ccc(Br)cc3)o2)cc1 | 19.6 |
| COc1ccc(-c2nc3ccccc3c(=O)n2-c2ccc(OC)cc2)cc1 | 13.8 |
| COc1ccc(CC(=O)N/N=C(\C)CC(=O)NCc2ccco2)cc1OC | 17.4 |
| Cc1nn(-c2ccccc2)c(N)c1N=Nc1ccc(Cl)cc1 | 7.22 |
| COc1ccc(N2CCN(C(=O)[C@@H](NC(=O)c3cc(OC)cc(OC)c3)C(C)C)CC2)cc1 | 15.8 |
| O=C(CCNS(=O)(=O)c1ccccc1)NCCSc1ccc(Br)cc1 | 10.4 |
| CCOCc1c(C(=O)N2CCN(Cc3ccc(Br)s3)CC2)oc2ccccc12 | -11.4 |
| CCn1c(SCC(=O)N2CCC(C)CC2)nc2c(c1=O)SC(C)C2 (centres unmarked) | 1.53 |
| Cc1ccc2c(c1)C(=O)C(=O)N2CC(=O)OC(C)C | 8.55 |
| Cc1c(NC(=O)C(C)OC(=O)Cc2ccccc2)c(=O)n(-c2ccccc2)n1C (centres unmarked) | 18.2 |
